# Experimental data taken from the supplement of paper PMC7826260.
# The list shows a part of the results. The data describe in vitro nicking of single-stranded DNA by Rep domains for 1 h at 37 °C with 3 µM enzyme; only the middle of the 90-letter strands is printed. A value is the log2 ratio of uncut reads to the pool without enzyme; uncut sequences lie near 0, cut ones below; no hit call is given. The scaling is to total reads; values above 0 arise when much of the pool is cut.
# Legend:
# Test in all cases: uncleaved DNA left, log2 of reads against the no-enzyme library (log2 ratio); higher = less cleavage (more negative = more Rep cleavage of the k-mer); sequences stand for … in CTCGTCCG…ACCGGAGA
# [1] = system: T1, Rep nickase domain of Muscovy duck circovirus
# T1 sequence (protein, residues 1-111, tag omitted): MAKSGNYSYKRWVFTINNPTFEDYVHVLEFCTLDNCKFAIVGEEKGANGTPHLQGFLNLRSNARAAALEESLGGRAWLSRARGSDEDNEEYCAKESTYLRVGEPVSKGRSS
# Protocol: (§1)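 A pool of 90-nt single-stranded DNAs with seven random bases just before the constant AC of the nick site (name = the seven bases) was cut by 3 µM recombinant His6-SUMO-tagged Rep nickase domain (300 nM DNA, 50 mM HEPES pH 8.0, 50 mM NaCl, 1 mM MnCl2, 1 h, 37 °C, three replicates). Uncut DNA was amplified and sequenced.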
# [2] = system: T2, Rep nickase domain of banana bunchy top virus
# T2 sequence (protein, residues 1-94, tag omitted): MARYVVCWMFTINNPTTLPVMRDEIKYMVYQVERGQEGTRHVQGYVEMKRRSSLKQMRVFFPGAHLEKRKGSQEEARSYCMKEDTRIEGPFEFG
# Protocol: as §1
# [3] = system: T3, Rep nickase domain of cabbage leaf curl virus
# T3 sequence (protein, residues 1-116, tag omitted): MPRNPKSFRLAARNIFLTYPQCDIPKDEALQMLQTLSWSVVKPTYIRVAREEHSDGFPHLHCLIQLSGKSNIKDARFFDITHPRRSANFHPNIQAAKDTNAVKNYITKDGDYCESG
# Protocol: as §1
# [4] = system: T4, Rep nickase domain of chickpea chlorotic dwarf virus
# T4 sequence (protein, residues 1-124, tag omitted): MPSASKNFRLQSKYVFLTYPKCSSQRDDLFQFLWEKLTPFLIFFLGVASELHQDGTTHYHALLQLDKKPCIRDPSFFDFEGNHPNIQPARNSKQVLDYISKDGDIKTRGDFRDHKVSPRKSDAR
# Protocol: as §1
# [5] = system: T5, Rep nickase domain of faba bean necrotic yellows virus
# T5 sequence (protein, residues 1-98, tag omitted): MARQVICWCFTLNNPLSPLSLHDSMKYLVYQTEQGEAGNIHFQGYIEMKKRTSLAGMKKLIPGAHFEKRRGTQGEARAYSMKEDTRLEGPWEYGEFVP
# Protocol: as §1
# [6] = system: T6, Rep nickase domain of maize striate mosaic virus
# T6 sequence (protein, residues 1-117, tag omitted): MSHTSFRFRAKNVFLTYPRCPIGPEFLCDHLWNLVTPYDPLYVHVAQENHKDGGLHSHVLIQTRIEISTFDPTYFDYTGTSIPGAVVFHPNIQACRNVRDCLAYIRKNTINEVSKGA
# Protocol: as §1
# [7] = system: T7, Rep nickase domain of porcine circovirus 2
# T7 sequence (protein, residues 2-116, tag omitted): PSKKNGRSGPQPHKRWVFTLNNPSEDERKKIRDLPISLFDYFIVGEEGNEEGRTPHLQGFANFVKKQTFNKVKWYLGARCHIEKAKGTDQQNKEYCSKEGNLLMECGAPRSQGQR
# Protocol: as §1
# [8] = system: T8, Rep nickase domain of tomato golden mosaic virus
# T8 sequence (protein, residues 1-124, tag omitted): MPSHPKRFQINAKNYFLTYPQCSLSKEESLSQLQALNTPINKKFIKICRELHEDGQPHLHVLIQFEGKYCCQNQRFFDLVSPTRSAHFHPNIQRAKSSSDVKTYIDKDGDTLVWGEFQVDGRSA
# Protocol: as §1
# [9] = system: T9, Rep nickase domain of tomato yellow leaf curl virus
# T9 sequence (protein, residues 1-136, tag omitted): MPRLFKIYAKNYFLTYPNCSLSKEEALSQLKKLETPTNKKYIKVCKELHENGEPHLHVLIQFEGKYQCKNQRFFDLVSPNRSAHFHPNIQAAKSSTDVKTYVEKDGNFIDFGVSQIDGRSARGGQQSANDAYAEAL
# Protocol: as §1
# [10] = system: T10, Rep nickase domain of wheat dwarf virus
# T10 sequence (protein, residues 1-137, tag omitted): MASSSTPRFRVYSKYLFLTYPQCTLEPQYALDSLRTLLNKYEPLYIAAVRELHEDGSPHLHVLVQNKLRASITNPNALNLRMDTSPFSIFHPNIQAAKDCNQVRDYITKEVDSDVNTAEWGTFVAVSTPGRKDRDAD
# Protocol: as §1
Sequence,uncleaved DNA left (log2) [1],uncleaved DNA left (log2) [2],uncleaved DNA left (log2) [3],uncleaved DNA left (log2) [4],uncleaved DNA left (log2) [5],uncleaved DNA left (log2) [6],uncleaved DNA left (log2) [7],uncleaved DNA left (log2) [8],uncleaved DNA left (log2) [9],uncleaved DNA left (log2) [10]
AGTGCCT,-0.0278,0.00265,0.0945,0.0845,-0.0672,0.732,-2.16,-0.000116,-0.0384,-0.00785
GCAATCC,0.0592,0.0801,-0.0839,0.315,0.0279,0.142,0.191,0.0195,0.109,0.0502
CTAAGTA,0.101,0.0298,-1.08,-2.32,0.042,-0.947,-0.104,0.0471,0.154,-0.206
CTTAGCT,-0.00641,-0.0711,-0.385,-1.43,-0.035,-1.1,-0.147,-0.0514,-0.0544,-0.0139
GATTTCA,-0.557,-0.133,0.203,0.208,0.000565,1.23,-0.499,0.0735,0.0482,0.144
GCTGACG,-0.0089,0.0574,-0.485,-0.37,-0.0305,-0.695,0.135,-0.000608,-0.0114,-0.0697
CGGCGTA,0.00982,0.0309,-0.28,-0.321,-0.149,-0.26,0.0318,0.0138,0.089,-0.0394
TGCCCAA,-0.0176,0.0351,0.177,0.4,-0.0902,-0.169,-0.0543,-0.062,0.0928,0.072
CGGGCAG,-0.0522,-0.0328,0.55,1.49,-0.202,1.68,0.0421,-0.116,-0.122,-0.0837
TTAATGA,0.0434,0.00988,0.136,0.0898,0.0497,-0.597,-0.0385,0.0372,0.0316,-0.0331
AAAACAT,0.081,0.115,-0.0104,-0.841,0.0733,0.68,0.0166,0.0246,0.0817,0.19
GTCCGGT,-0.00484,-0.0351,0.298,0.804,-0.144,1.55,0.0184,0.0455,0.0601,0.0124
CCAACAA,-0.0422,-0.168,-0.127,-1.44,0.037,-0.68,0.0262,0.0589,-0.0562,0.0546
AAGCACG,0.0115,0.13,-0.73,-0.631,0.153,-0.968,0.0509,-0.0531,0.0831,-0.0461
CAATAGG,-0.0642,-0.0025,-0.113,0.445,-0.0727,-0.323,-0.0162,0.0566,-0.147,0.0108
GTGCAGG,0.077,0.0016,0.157,0.695,-0.00821,0.415,0.153,0.108,-0.0864,-0.0184
GCATTTA,0.125,0.186,0.00221,-0.297,0.12,0.0631,0.13,0.133,0.0909,0.174
CGAGTCT,0.0849,0.0226,-0.0997,-0.898,0.184,-0.066,0.00652,0.107,0.0441,0.0852
ACATTCG,0.064,0.0429,-0.174,1.3,0.0525,0.786,0.233,-0.0186,0.172,0.08
AGCAATG,0.0636,0.162,0.0845,0.665,-0.0121,1.71,0.191,0.158,0.0537,0.18
GCTATTA,-0.104,-0.0188,-0.0168,-0.0622,-0.0829,0.286,-0.103,0.0188,0.0232,-0.0497
TCTCCAA,-0.129,-0.0988,0.0293,0.0389,-0.0587,0.289,0.0822,-0.0514,0.0125,-0.0527
ATTAAAC,-0.0309,-0.0712,-0.06,-0.473,-0.0529,-0.82,-0.0213,-0.023,-0.0532,-0.00236
TCGCGAT,-0.0491,-0.0458,-0.215,-0.0211,0.0396,-0.316,0.0788,-0.00958,-0.106,-0.243
ACGCCAA,-0.0348,0.0929,-0.107,-0.0525,0.158,-0.313,0.07,-0.0953,-0.189,-0.144
GGGTTTT,-0.102,0.0854,0.705,1.64,0.0443,2.14,-2.17,0.0296,0.0783,0.158
GGGCGCG,0.053,-0.000648,-0.464,0.0526,-0.0872,-0.165,0.0938,-0.0403,-0.236,-0.128
CGGAGTT,-0.0299,-0.138,0.207,-0.565,-0.189,0.427,-0.316,-0.0821,-0.0523,0.0116
TTGAACA,-0.0794,-0.0138,0.147,-0.959,-0.13,0.333,-0.149,-0.0865,0.0384,-0.0678
CGGGGTT,0.0359,-0.0237,0.46,0.811,-0.121,1.69,-0.0536,-0.137,-0.0784,-0.0268
